Laboratory results from patent US10334859B2, “Method and pesticidal mixtures for controlling Pentatomidae pests” (BASF SE, priority 2014, dated 2019).
Like-named read-outs stand apart in the source and are kept apart here.

Columns and labels:
[1] = test system: yellow fever mosquito (Aedes aegypti); conditions: larval mortality after 2 days
[2] = test system: Mediterranean fruitfly (Ceratitis capitata)
[3] = test system: southern green stink bug (Nezara viridula); assay: Test 5: control of southern green stink bug, dipped green beans and bugs; conditions: 4th instar, recorded after 5 days
[4] = test system: tobacco budworm (Heliothis virescens); conditions: 0.08 ppm
Phytophthora infestans = assay type: cell-based; conditions: growth at 405 nm 7 days after inoculation

Question: For thiamethoxam, which Observed efficacy ([1]; 0.8 ppm) is on record?
Answer: 50%

Question: And the Observed efficacy ([2]; 0.08 ppm)?
Answer: 0%

Question: Which Observed efficacy ([3]; 10 ppm) does the source give for spinosad here?
Answer: 17%

Question: What does the source list for CC1(C)C(C=C(Cl)Cl)C1C(=O)OC(C#N)c1cccc(Oc2ccccc2)c1 (stereo not drawn) [Alphacypermethrin, alpha-cypermethrin]?
Answer: Observed efficacy ([2]; 0.4 ppm): 0%; Observed efficacy [4]: 0%

Question: With C[C@@H]1C(=O)O[C@H]2C[C@@]34[C@H]5C[C@@H](C(C)(C)C)[C@]36[C@@H](OC(=O)[C@@H]6O)O[C@@]4(C(=O)O5)[C@]21O [Ginkgolide A] as the compound, how does the Observed efficacy ([3]; 5 ppm) read?
Answer: 58%

Question: What about the Observed efficacy (Phytophthora infestans; 63 ppm) of the same compound?
Answer: 38%

Question: With COC(=O)Nc1nc2ccccc2[nH]1 [Carbendazim, carbendazim] as the compound, how does the Observed efficacy (Phytophthora infestans; 0.004 ppm) read?
Answer: 0%

Question: How did the Observed efficacy (Phytophthora infestans; 0.004 ppm) turn out when mancozeb was run?
Answer: 0%

Question: What about the Observed efficacy (Phytophthora infestans; 0.016 ppm) of the same compound?
Answer: 15%

Question: What about the Observed efficacy (Phytophthora infestans; 0.063 ppm) of the same compound?
Answer: 39%

Question: What about the Observed efficacy (Phytophthora infestans; 1 ppm) of the same compound?
Answer: 20%

Question: With CC(C)(C)[C@]1(O)C[C@@H]2OC(=O)C[C@@]23C(=O)O[C@@H]2OC(=O)[C@H](O)[C@]213 [Bilobalide, (3aS,5aR,8aS,9R,10aR)-9-tert-butyl-8,9-dihydroxydihydro-9H-furo[2,3-b]furo[3′,2′;2,3]cyclopenta[1,2-c]furan-2,4,7(3H,8H)-trione] as the compound, how does the Observed efficacy ([1]; 160 ppm) read?
Answer: 0%

Question: How did the Observed efficacy (Phytophthora infestans; 0.016 ppm) turn out when CCCN(CCOc1c(Cl)cc(Cl)cc1Cl)C(=O)n1ccnc1 [Prochloraz, prochloraz] was run?
Answer: 3%

Question: For CC(C)NC(=O)N1CC(=O)N(c2cc(Cl)cc(Cl)c2)C1=O [Iprodion, iprodione], which Observed efficacy (Phytophthora infestans; 0.004 ppm) is on record?
Answer: 0%
